# Results reported in the supplement of paper PMC10338343.
# ± gives the standard deviation. Only a part is listed here, and it is no random draw.
# Tested on: MIWI (PIWIL1) piRISC loaded with piRNA #1 (30 nt)
# Experiment: pre-steady-state target cleavage rate (min^-1); MIWI and MILI are mouse PIWI proteins and EfPiwi is from a freshwater sponge; tags in brackets are library labels; higher = faster piRNA-guided slicing of the target
# Conditions: guide: piRNA #1 5'p-UGAGGUAGUAGGUUGUAUAGUAUCCAGAGG; auxiliary factor: 500 nM mouse GTSF1
# Summary of the method: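 Cleave-'n-Seq measured uncleaved targets by sequencing after a transcribed, DNA-blocked target RNA library […] was mixed with 1 nM active affinity-purified piRISC holding one synthetic guide, with or without 500 nM GTSF1 partner protein, at 33 °C in HEPES–potassium acetate buffer for 0–8 or 0–960 min. Counts were normalised to depth and to weakly complementary targets, three trials were pooled, and k3 was capped at 0.0001 min^-1. A burst-and-steady-state fit gave the pre-steady-state cleavage rate.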
# 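Further: 1 nM active piRISC with 0.1 nM target library at 33 °C single turnover.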
row,Sequence,pre-steady-state target cleavage rate
1,GGAGACCUAUGAUAUGUUCCUAGAACCUCA,< 0.0001
2,GGACUGGAAACUAUACAACCUACAACCUCA,0.194 ± 0.038
3,GGAGAGGAUACUAUACAACCUUCUACCACA,0.219 ± 0.026
4,GGAGAGGAUACUACUACAACCUACUACCUCA,1.22 ± 0.074
5,GGUCUGGAUACUAUACAACCUACAUGCUCA,0.00673 ± 0.0025
6,GGAGACCUUACUUACAACCUACUACCUCA,0.138 ± 0.015
7,GGAGACGAUACUAUACUACCUACAACCUCA,0.683 ± 0.057
8,GGAGACCUAUCUAUACAACCUACUAGCACA,0.132 ± 0.028
9,GGAGACCUAUCUAUACAGCCUACUACCUCA,0.14 ± 0.011
10,GGAGACGAAACUAUACAACCUACUACCUGA,0.708 ± 0.12
11,GGAGACCUUACUUUACAACGUACUACCUCA,0.237 ± 0.035
12,GGAGAGGAUACUAUACUUGCUACUACCUCA,0.039 ± 0.008
13,GGAGAGGAUACUAUACUACCUACUUCCUCA,0.216 ± 0.03
14,CCUCUGGAUACUAUACAACUUACUACCUCA,0.644 ± 0.026
15,GGAGACCAUACUAUACAACCUACUGCCUCA,1.25 ± 0.098
16,GGAGACCAUACUAUUCAACCUUCUACCUCA,0.423 ± 0.028
17,GGAGACCAUACUAUACAAGCUACUACCUGA,0.709 ± 0.042
18,GGAGACCUAUGUUAUACAACCUACUACCUCA,0.996 ± 0.11
19,GCACUCGAUACUAUACAACCUACUACCUCA,1.43 ± 0.059
20,GGAGACCUAUGAUAUCUACCUACUACCUCA,< 0.0001

row,Sequence,pre-steady-state target cleavage rate
1,GCUCUGGAAACUAUACAACCUACUACCUCA,1.92 ± 0.11
2,GGAGACCAUAGUAUACUACCUACUACCUCA,0.13 ± 0.025
3,GGACUGGAUACUAUACAACCAACUUCCUCA,0.00677 ± 0.0026
4,GGAGACGAUACUAUACAACCUACUACUUCA,1.74 ± 0.11
5,GGUCUGGAUACUAUACAACCUACGUACCUCA,0.831 ± 0.085
6,GCUCUGGAUACUAUACAAACCUACUACCUCA,0.018 ± 0.0064
7,GCUCUGGAUACUAUACAACGUACAACCUCA,0.971 ± 0.086
8,GGAGACCAUACUAUACAACCUACUAGCUGA,0.0865 ± 0.023
9,GGAGACCUAACUAUACAUCCUAGUACCUCA,0.157 ± 0.027
10,GCUCUCGGAUACUAUACAACCUACUACCUCA,1.76 ± 0.088
11,GGAGACCAUACUAUAAACCUACUACCUCA,0.175 ± 0.023
12,GGAGACCAUACUAUACGACCUACUACCUCA,1.06 ± 0.072
13,GGAGACCUAUCUAAACAACCUAGUACCUCA,0.00985 ± 0.0029
14,GGAGACCUAUCUAUACAACCAACUAGCUCA,0.0047 ± 0.0022
15,GGAGAGGAAACUAUACAACCUUCUACCUCA,0.626 ± 0.043
16,CCUCUGGAUACUAUAGAACGUACUACCUCA,0.369 ± 0.041
17,GGUCUGGUUACUAUAGAACCUACUACCUCA,0.924 ± 0.067
18,CCUCUGGAUACUAUACAAGGUACUACCUCA,0.426 ± 0.033
19,GGAGUGGAUACUAUACAAGGUACUACCUCA,0.266 ± 0.021
20,GGACUGGAUACUAUACAACCAUCUACCUCA,0.0244 ± 0.0045
